Key:
Assay in all cases: cross-linking
nicastrin H222C = nicastrin H222C (human, UniProt Q92542, H222C)
PS1 N190C = PS1 N190C (human, UniProt P49768, N190C)
nicastrin V224C = nicastrin V224C (human, UniProt Q92542, V224C)

B1: Pen-2 L98C (natural protein)
chain: not shown
Q: Does B1 bind (nicastrin H222C)?
A: binds

B2: Pen-2 P97C (natural protein)
chain: not shown
Q: Does B2 bind (PS1 N190C)?
A: binds

B3: Pen-2 T100C (natural protein)
chain: not shown
Q: Does B3 bind (nicastrin V224C)?
A: binds

— paper PMC4568306 (Nature, 2015)
